We go through 37 sequences from paper PMC5892938.

Some of the results follow. At the low end of the ranking, values are background and their order means little.

This experiment has as its target GST-SBP-SLBP (stem-loop binding protein) (UniProt Q14493). The experiment is described as follows: targeted RNA Bind-n-Seq.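 Further: DESeq read counts versus GST-SBP nonspecific binding control pulldown.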 To be noted: RBNS binding buffer: 25 mM Tris pH 7.5, 150 mM KCl, 3 mM MgCl2, 0.1% Tween, 0.5 mg/mL BSA, 1 mM DTT; 27 nM protein, 750 pM RNA pool; temperature not stated; high values mean tight binding.
With “GGUCACGUCUCAAUCAACUCUUCCUCCAGGGAAAGCCCUGGUAAUGUCAACAGCUCGCAGUCAAG”, the binding signal (log2 fold change) was -0.211.

For “GGUCACGUCUCAAUCAACUCAACUUCAGGAGUUUACUCCUGCUUUCUCAACAGCUCGCAGUCAAG”, the binding signal (log2 fold change) was 0.0425.

Turning to “GGUCACGUCUCAAUCAACUCAAACGAGGGGGGGAAAACCCCUUUACCCUCAACCUCAACAGCUCGCAGUCAAG”, the binding signal (log2 fold change) was -0.0512.

As to “GGUCACGUCUCAAUCAACUCUUUCCCCAGGGAAAUCCCUGGUAAUCUCAACAGCUCGCAGUCAAG”, the binding signal (log2 fold change) was determined as 0.116.

Regarding “GGUCACGUCUCAAUCAACUCAAUCUCAGGAGUUUUCUCCUGUAUGUUCAACAGCUCGCAGUCAAG”, the binding signal (log2 fold change) was found to be 0.199.

For “GGUCACGUCUCAAUCAACUCACACGAGGGGGGGAAAACCCCUUUACCCUCUCAAUCAACAGCUCGCAGUCAAG”, the binding signal (log2 fold change) was determined as 0.0404.

Turning to “GGUCACGUCUCAAUCAACUCUACUUCCAGGGAAACCCCUGGCAAUCUCAACAGCUCGCAGUCAAG”, the binding signal (log2 fold change) is -0.177.

Take “GGUCACGUCUCAAUCAACUCAUCUUCAGGAGUUUCCUCCUGCUAAUUCAACAGCUCGCAGUCAAG”: the binding signal (log2 fold change) worked out at 0.0162.

Regarding “GGUCACGUCUCAAUCAACUCUAUCGAGGGGGGGAAAACCCCUUUACCCUCAACAUCAACAGCUCGCAGUCAAG”, the binding signal (log2 fold change) is -0.0975.

Consider “GGUCACGUCUCAAUCAACUCAAUUUCCAGGGAAAACCCUGGUAUUUUCAACAGCUCGCAGUCAAG”, for which the binding signal (log2 fold change) is -0.243.

As to “GGUCACGUCUCAAUCAACUCAAACGAGGGGGGGAAAACCCCUUUACCCUCAAGAUCAACAGCUCGCAGUCAAG”, the binding signal (log2 fold change) was -0.0454.

On to “GGUCACGUCUCAAUCAACUCUUCAGAGGGGGGGAAAACCCCUUUACCCUCCGUUUCAACAGCUCGCAGUCAAG”, for which the binding signal (log2 fold change) was 0.44.

As for “GGUCACGUCUCAAUCAACUCUACUUCAGGAGUUUCCUCCUGUUAUUUCAACAGCUCGCAGUCAAG”, the binding signal (log2 fold change) was 0.165.

Turning to “GGUCACGUCUCAAUCAACUCAGUCUCAGGAGUUUGCUCCUGCUAUCUCAACAGCUCGCAGUCAAG”, the binding signal (log2 fold change) was found to be 0.114.

For the sequence “GGUCACGUCUCAAUCAACUCUUAAGAGGGGGGGAAAACCCCUUUGCCCUCCACAUCAACAGCUCGCAGUCAAG”, the binding signal (log2 fold change) was 0.0163.

Take “GGUCACGUCUCAAUCAACUCUUUCUCCAGGGAAAUCCCUGGUUAAUUCAACAGCUCGCAGUCAAG”: the binding signal (log2 fold change) is -0.0687.

Consider “GGUCACGUCUCAAUCAACUCCACAGAGGGGGGGAAAACCCCUUUACCCUCAAAAUCAACAGCUCGCAGUCAAG”, for which the binding signal (log2 fold change) is -0.154.

On to “GGUCACGUCUCAAUCAACUCAUUUUCCAGGGAAAGCCCUGGUAUUUUCAACAGCUCGCAGUCAAG”, for which the binding signal (log2 fold change) was 0.0418.

Regarding “GGUCACGUCUCAAUCAACUCUCACGAGGGGGGGAAAACCCCUUUGCCCUCAAUUUCAACAGCUCGCAGUCAAG”, the binding signal (log2 fold change) amounted to 0.305.

“GGUCACGUCUCAAUCAACUCCCAAGAGGGGGGGAAAACCCCUUUGCCCUCAACCUCAACAGCUCGCAGUCAAG”: the binding signal (log2 fold change) was -0.443.

For “GGUCACGUCUCAAUCAACUCCCUAGAGGGGGGGAAAACCCCUUUGCCCUCCAUAUCAACAGCUCGCAGUCAAG”, the binding signal (log2 fold change) is -0.443.

As for “GGUCACGUCUCAAUCAACUCAUUUCCAGGAGUUUCCUCCUGCUUUUUCAACAGCUCGCAGUCAAG”, the binding signal (log2 fold change) worked out at 0.0415.

On to “GGUCACGUCUCAAUCAACUCAAUCUCAGGAGUUUUCUCCUGCAAAUUCAACAGCUCGCAGUCAAG”, for which the binding signal (log2 fold change) is 0.0731.

On to “GGUCACGUCUCAAUCAACUCAUCGCCCAGGGAAAUCCCUGGUAUUUUCAACAGCUCGCAGUCAAG”, for which the binding signal (log2 fold change) came to 0.0577.

As for “GGUCACGUCUCAAUCAACUCAAUCUCAGGAGUUUACUCCUGCAUAGUCAACAGCUCGCAGUCAAG”, the binding signal (log2 fold change) was 0.214.

In the case of “GGUCACGUCUCAAUCAACUCCUUAGAGGGGGGGAAAACCCCUUUGCCCUCCGUAUCAACAGCUCGCAGUCAAG”, the binding signal (log2 fold change) is 0.307.

Regarding “GGUCACGUCUCAAUCAACUCAGUCUCCAGGGAAAUCCCUGGCAAUUUCAACAGCUCGCAGUCAAG”, the binding signal (log2 fold change) came to 0.0962.

Take “GGUCACGUCUCAAUCAACUCUUUUCCCAGGGAAAGCCCUGGCUUUUUCAACAGCUCGCAGUCAAG”: the binding signal (log2 fold change) came out at 0.0822.

As to “GGUCACGUCUCAAUCAACUCCCUAGAGGGGGGGAAAACCCCUUUACCCUCAAAAUCAACAGCUCGCAGUCAAG”, the binding signal (log2 fold change) is -0.123.

For “GGUCACGUCUCAAUCAACUCUACUCCCAGGGAAAGCCCUGGUAAACUCAACAGCUCGCAGUCAAG”, the binding signal (log2 fold change) is -0.0284.

As to “GGUCACGUCUCAAUCAACUCAAUCGCAGGAGUUUACUCCUGGUUUUUCAACAGCUCGCAGUCAAG”, the binding signal (log2 fold change) is 0.0811.

For “GGUCACGUCUCAAUCAACUCUCUAGAGGGGGGGAAAACCCCUUUACCCUCCACUUCAACAGCUCGCAGUCAAG”, the binding signal (log2 fold change) was 0.00476.

Consider “GGUCACGUCUCAAUCAACUCCAUCGAGGGGGGGAAAACCCCUUUACCCUCAUACUCAACAGCUCGCAGUCAAG”, for which the binding signal (log2 fold change) is -0.0704.

For “GGUCACGUCUCAAUCAACUCUAGUCCCAGGGAAAUCCCUGGUUUUUUCAACAGCUCGCAGUCAAG”, the binding signal (log2 fold change) is -0.201.

Take “GGUCACGUCUCAAUCAACUCAUCUUCAGGAGUUUCCUCCUGCUUACUCAACAGCUCGCAGUCAAG”: the binding signal (log2 fold change) is -0.149.

Take “GGUCACGUCUCAAUCAACUCAAUUUCCAGGGAAAACCCUGGCAUAGUCAACAGCUCGCAGUCAAG”: the binding signal (log2 fold change) worked out at 0.0353.

As for “GGUCACGUCUCAAUCAACUCUUUUCCCAGGGAAAACCCUGGUAUUUUCAACAGCUCGCAGUCAAG”, the binding signal (log2 fold change) was 0.0111.
